According to PubChem BioAssay (NCATS):
Inconclusive results, whose numbers are uncertain, are shown with a selection of clear calls. For part of these data: A potency beside an inconclusive call is a rough fit, not a confirmed value. The source made the active and inactive calls. Calls follow the shape of the dose curve; as a rule, active = well fitted curve in the direction sought with a large enough effect; inconclusive = small, poorly fitted or top-dose-only effect, or another doubt; inactive = no such curve, though single readings can be large; an effect the other way counts as inactive or inconclusive.

What was measured:
[1] = P-glycoprotein substrates identified in KB-8-5-11 adenocarcinoma cell line, qHTS therapeutic library screen (AID 1346987); settings: activity change, negative = cytotoxicity: at 44.5 µM (top of the series); also: nearly all actives have a fitted effect of over 65% in size
Method in brief: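 Steps: plate 500 KB-8-5-11 cells/well in DMEM + 10% FCS (colchicine removed); pin compounds in dose-response; incubate 72 h, 37 degree C, 5% CO2; add CellTiter-Glo, 5 min; read luminescence.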

[2] = system: Zika virus NS2B-NS3 protease (unlinked complex); assay: Primary screen GU Rhodamine qHTS for Zika virus inhibitors: Unlinked NS2B-NS3 protease assay (AID 1347159); settings: Recombinant ZIKV NS2B-NS3 protease, Rhodamine110 substrate fluorescence; activity change, negative = inhibition: at 107 µM (top of the series); also: potency is read from the fitted curve at half-maximal effect; nearly all actives have a fitted effect of over 60% in size
Method in brief: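 Noncovalent NS2B hydrophilic domain–NS3 protease domain complex (25 nM) preincubated 15 min at room temperature with compounds (up to 114 microM) in 10 mM Tris-HCl pH 8.0, 0.01% Tween 20; 1.5 microM Rhodamine110 substrate added, fluorescence change over 15 min fitted to Hill equation.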

[3] = biological target: Calcium and integrin-binding protein 1 (Homo sapiens) (UniProt Q99828); assay: Primary qHTS for Identification of Calcium Integrin Binding Protein 1 (CIB1) Competitor (AID 1508620);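 also: GST tagged CIB1 binding a fluorescein labelled alphaIIb integrin peptide tracer; top concentration of the series differs between compounds; % is scaled to controls: 0 for no effect and ±100 for the full control effect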
Sequence of UniProt Q99828 (Q99828 whole entry, looked up): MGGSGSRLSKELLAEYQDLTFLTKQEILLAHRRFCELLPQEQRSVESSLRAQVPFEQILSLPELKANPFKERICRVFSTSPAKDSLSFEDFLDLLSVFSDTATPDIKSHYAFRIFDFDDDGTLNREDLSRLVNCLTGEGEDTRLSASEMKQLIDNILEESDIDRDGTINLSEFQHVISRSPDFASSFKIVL
Method in brief: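 Fluorescence polarization competition: CIB1-GST (1 uM final) preincubated with compound 15 min at room temperature, then FITC-labeled alphaIIb peptide (100 nM final) added for another 15 min. Polarization read at Ex 480/Em 540.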

[4] = Primary fluorescence-based thiol-reactive (MSTI) qHTS assay for identification of artifact compounds. (AID 1845221);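 also: potency is read from the fitted curve at half-maximal effect; thiol-reactive compounds lower the probe fluorescence signal; nearly all actives have a fitted effect of over 65% in size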
Method in brief: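 Curve-fitted percent inhibition (4-parameter Hill) derived from fluorescence, Ex 525/Em 598 nm, scaled with Acetyl-MSTI and MSTI; 1 h incubation at room temperature.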

[5] = Primary redox qHTS assay for identification of artifact compounds. (AID 1845223); also: potency is read from the fitted curve at half-maximal effect
Method in brief: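 Amplex Red (25 uM) and HRP (250 mU/mL) in HBSS, with compounds for 15 min, then 250 uM DTT for 30 min, room temperature, dark. Fluorescence 525/598 nm read; normalized to DMSO and 10 uM DA3003; Hill fit.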

OV90 = assay: Primary qHTS to identify gynecologic anti-cancer compounds using libraries of approved drugs and bioactive compounds (AID 1345084); settings: Gynecologic cancer cell panel viability, ATPlite luminescence, 48 h; series mostly up to 57.5 µM; also: % is scaled to controls: 0 for no effect and ±100 for the full control effect; nearly all actives have a fitted effect of over 55% in size
Method in brief: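 Cytotoxicity screen measuring ATP content by luciferase luminescence. Each compound is applied at five concentrations for 48 h at 37 C with 5% CO2.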
Tags tell the direction and shape of the fitted curve.

CC1OC(OC2C(OC3C(O[C@H]4CC[C@@]5(C)C(CC[C@]6(C)C5C(=O)CC5=C7CC(C)(C)CC(O)[C@]7(C)CC[C@]56C)C4(C)C)OC(C(=O)O)C(O)C3O)OCC(O)C2O)C(O)C(O)C1O (stereo partly specified)
inconclusive: Potency [2] 3.55 µM [inhibitor, full curve] | Potency [4] 5.66 µM [inhibitor, partial curve] | Potency [5] 5.66 µM [activator, single point]
inactive: outcome [1] inactive [at 9.29 µM] | Potency [3] | activity change, negative = cytotoxicity (OV90) -4.22% [at 11.6 µM]
